Data: PubChem BioAssay AID485364 (National Center for Advancing Translational Sciences (NCATS), 2010)
About 11,000 (3.1%) of roughly 360,000 compounds were called active. This list was built around the results that the source calls inconclusive (neither active nor inactive); the mix of calls is not that of the screen. Calls follow the shape of the dose curve; as a rule, active = well fitted inhibition curve with a large enough effect; inconclusive = small, poorly fitted or top-dose-only effect; inactive = no such curve, though single readings can be large or run the other way. Potencies of inconclusive entries are left out as doubtful fits.

Each compound was assayed against Schistosoma mansoni thioredoxin glutathione reductase (TGR) (UniProt Q962Y6) (assay: qHTS Assay for the Inhibitors of Schistosoma Mansoni Peroxiredoxins). Conditions: purified TGR, DTNB reduction, TNB absorbance 405 nm; series mostly up to 114 µM.
Procedure, shortened: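 Kinetic colorimetric format: TGR-catalysed, NADPH-driven DTNB reduction monitored via TNB absorbance. Enzyme dispensed at 20 nM; compound exposure 15 min at room temperature before reaction start.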
Also: nearly all actives have a fitted effect of over 60% in size.
Potency is read from the fitted curve at half-maximal effect; tags tell the direction and shape of the fitted curve.

Structure (SMILES)	Potency
O=C(Nc1nnc(SCc2c(Cl)cccc2Cl)s1)C1CC(=O)N(c2ccc3c(c2)OCCO3)C1 (stereo not given)	inactive
COc1ccc(N2CCN(C(=O)c3ccc(CNc4c(N5CCOCC5)c(=O)c4=O)cc3)CC2)cc1	inconclusive [inhibitor, partial curve, poor fit]
Cc1ccc(NC2=CC(c3ccccc3F)N(c3ccc(C)cc3)C2=O)cc1 (stereo not given)	inconclusive [inhibitor, full curve]
O=C(CNS(=O)(=O)c1cccs1)Nc1ccc2c(c1)OCCO2	inactive
COc1ccc(CNc2ccccn2)c(O)c1	inconclusive [inhibitor, partial curve]
Cc1ccc(N(CC(=O)NC2CCCCC2)C(=O)CNC(=O)c2cccs2)cc1	inactive
COc1ccc2nc(Cl)c(C3CC(c4ccco4)=NN3C(=O)CCC(=O)O)cc2c1 (stereo not given)	inconclusive [inhibitor, partial curve]
O=C1CC(SCc2nc3ccccc3[nH]2)C(=O)N1c1cccc(F)c1 (stereo not given)	inconclusive [inhibitor, partial curve, poor fit]
CC(C)S(=O)(=O)C1=NSC2=NC(=O)/C(=C\c3ccc(-c4cccc(C(=O)O)c4)o3)C(=N)N21	inconclusive [inhibitor, partial curve]
CC(C)CN1C(=O)c2ccc(C(=O)Nc3nccs3)cc2C1=O	inactive
N#Cc1ccc(C2=NC(C(F)(F)F)(C(F)(F)F)c3c(n(Cc4ccco4)c(=O)[nH]c3=O)N2)cc1	inconclusive [inhibitor, partial curve]
CCCCCCCOc1ccc(C(=O)Nc2cccnc2)cc1	inactive
CN(C(=O)/C=C/c1ccco1)c1ccccc1C(=O)O	active: 3.55 µM
CCN(CC)S(=O)(=O)c1ccc(NC(=S)NC(=O)C2CCC2)cc1	inconclusive [inhibitor, partial curve]
C=CCNC(=O)c1ccc(-c2cccc([N+](=O)[O-])c2)o1	inconclusive [inhibitor, partial curve]
COC(=O)c1ccccc1Sc1ncnc2onc(C)c12	inconclusive [inhibitor, partial curve]
CC(=O)/C(=C/N(C)C)C(=O)Nc1ccc(Cl)cc1Cl	inconclusive [inhibitor, full curve]
c1ccc(-n2ncc3c(NCc4cccnc4)ncnc32)cc1	inactive
CC(C)(C)C(=O)/C=c1\s/c(=C\c2ccc(-c3ccc([N+](=O)[O-])cc3)o2)c(=O)n1CC(=O)NC(N)=O	inconclusive [inhibitor, partial curve]
COc1ccc(CNCCc2c[nH]c3ccccc23)cc1OC	inconclusive [inhibitor, partial curve]
CC(C)(C)C(=O)Nc1ccc(S(=O)(=O)N2CC3CC(C2)c2cccc(=O)n2C3)cc1 (stereo not given)	inconclusive [inhibitor, partial curve]
OCCC1CN(Cc2cccn2-c2nccs2)CCN1Cc1ccccc1 (stereo not given)	inactive
COc1ccc(NC2=CC(=O)N(C)C2=O)cc1	inconclusive [inhibitor, partial curve]
COCc1cc(CN2CCCC2)c(O)c2ncccc12	inconclusive [inhibitor, partial curve]

Structure (SMILES)	Potency
COc1ccc(CN2C(=O)C(Cc3ccccc3)Nc3ncnc(N4CCOCC4)c32)cc1 (stereo not given)	inconclusive [inhibitor, partial curve]
O=C(CN1C=NS(=O)(=O)c2ccccc21)Nc1ccc(F)cc1	inactive
COc1ccc(-c2cc3nc(C)c(CCC(=O)N4CCN(c5cccc(Cl)c5)CC4)c(C)n3n2)c(OC)c1	inactive
CN=C1S/C(=C\c2ccc(OCC(=O)OC)c(OC)c2)C(=O)N1C	inactive
Cc1ccc(SC[C@H](c2ccccc2)N2CCN(C)CCC2=O)cc1	active: 39.8 µM
CC(=O)[C@@H]1[C@@H]2C(=O)N(c3ccc(F)c(Cl)c3)C(=O)[C@@H]2C2c3ccccc3C=CN21 (stereo not given in full)	active: 35.5 µM
O=C(Nc1cccc(-c2cnc3ccccc3n2)c1)c1ccccc1	inactive
CN(C)C(=O)CSc1nnc(Cc2ccccc2)n1Cc1ccco1	inconclusive [inhibitor, partial curve]
COc1ccc(S(=O)(=O)N2CCN(C(=O)c3ccc([N+](=O)[O-])o3)CC2)cc1	inconclusive [inhibitor, partial curve]
COc1ccc(C2=CC3=C(Br)C(=O)C(C)(OC(=O)c4ccco4)C(=O)C3=CO2)cc1 (stereo not given)	active: 5.01 µM
O=C(NCC(=O)N1CCC2(CC1)NCCc1[nH]cnc12)c1ccc2ccccc2c1	inconclusive [inhibitor, partial curve, poor fit]
O=C(Nc1ccc(O)c2c(=O)cc(-c3cccc(Cl)c3)oc12)c1ccc(F)cc1	inconclusive [inhibitor, partial curve]
O=C(CC1Sc2ncnn2C1=O)Nc1ccc(Br)cc1 (stereo not given)	active: 1 µM
O=Cc1c(-[n+]2ccccc2)nc([O-])n1-c1ccccc1	inconclusive [inhibitor, partial curve, poor fit]
COc1cccc(Nc2ccc([N+](=O)[O-])c3nonc23)c1	inconclusive [inhibitor, full curve]
CN1C(=O)C(c2ccc([N+](=O)[O-])cc2[N+](=O)[O-])C(=O)N(C)C1=O	inconclusive [inhibitor, partial curve, poor fit]
CCOC(=O)c1[nH]c2c(c1-c1ccccc1)C(=O)CC(c1ccc(OCC)cc1)C2 (stereo not given)	inactive
CCOC(=O)c1c(NC(=O)CS(=O)(=O)c2cn(CC)c3ccccc23)sc2c1CCCC2	inconclusive [inhibitor, partial curve]
O=C(CSCc1ccccc1)Nc1ccc(F)cc1F	inactive
Cc1ccc(C(=O)O)cc1NC(=O)c1ccc(Cn2nc(C)c(Cl)c2C)o1	inconclusive [inhibitor, partial curve]
CN1C(=O)/C(=N\OC(=O)c2ccccc2Cl)c2ccccc21	inconclusive [inhibitor, full curve]
COCCNC(=O)C1CCN(S(=O)(=O)c2ccc3c(c2)CCCN3C(C)=O)CC1	inconclusive [inhibitor, single point]
CS(=O)(=O)c1ccc(Cl)c(NC(=O)COC(=O)/C=C/c2cnc3ccccc3n2)c1	inactive
COC(=O)c1c(N2C(=O)CC(Sc3ccccc3C(=O)O)C2=O)sc(C)c1C (stereo not given)	active: 4.47 µM

Structure (SMILES)	Potency
Cc1ccc(C)c(NC(=O)C2CCCN(S(=O)(=O)c3c(C)noc3/C=C/N(C)C)C2)c1 (stereo not given)	inactive
CCOc1nc(-c2ccc(Cl)cc2)nc2ccccc12	inactive
O=c1c(Cl)cc(Cl)nn1-c1ccccc1	inconclusive [inhibitor, partial curve]
CN(C)S(=O)(=O)Oc1ccc(C(=O)Nc2cccc(C(F)(F)F)c2)cc1	inconclusive [inhibitor, single point]
O=c1c2ccccc2nc(SCc2cc(F)cc3c2OCOC3)n1Cc1ccco1	inconclusive [inhibitor, partial curve]
O=C1[C@@H]2C(c3cccnc3)=NO[C@@H]2C(=O)N1c1ccc2ccccc2c1	active: 3.55 µM
CCN(CC)S(=O)(=O)N1CCC(C(=O)NCc2ccc3c(c2)OCO3)CC1	inactive
COc1ccc(-n2ncc3c(N4CCN(c5cccc(C)c5)C(C)C4)ncnc32)cc1 (stereo not given)	inactive
O=C(NCc1ccco1)c1ccc(Cn2c(SCc3ccc(F)cc3)nc3cccnc32)cc1	inconclusive [inhibitor, partial curve]
COc1ccc(N2C(=O)[C@@H]3[C@H](C2=O)[C@H](C(=O)c2ccc(OC(C)=O)cc2)N2N=CC=C[C@@H]32)cc1	inconclusive [inhibitor, partial curve]
COc1ccc(S(=O)(=O)NCCc2cn3nc(C)c(C)nc3n2)cc1	inconclusive [inhibitor, partial curve]
COc1ccc(-n2nc([N+](=O)[O-])c(=NCc3cccnc3)n2O)cc1	inactive
O=C(CN1CCN(S(=O)(=O)c2cccs2)CC1)N1CCCCC1	inconclusive [inhibitor, partial curve]
COc1ccc(NC(=O)C2CC(c3ccccc3Cl)=NO2)cc1 (stereo not given)	inactive
Fc1ccc(Br)cc1SCCc1ccncc1	inconclusive [inhibitor, partial curve]
NC(=O)c1ccc(NC(=O)CN2CCN(c3ccccc3)CC2)cc1	inactive
O=C(CN1C(=O)COc2ccccc21)Nc1ccc(N2CCOCC2)cc1	inconclusive [inhibitor, full curve, poor fit]
O=C(CSc1nc(-c2ccccc2Cl)ns1)NCc1ccco1	inconclusive [inhibitor, full curve, poor fit]
Cc1ccc(/C=C/C(=O)NCCc2ccccc2)o1	active: 3.16 µM
COC(=O)c1c(C)oc2c1cc(NS(=O)(=O)c1cccs1)c1ccccc12	inconclusive [inhibitor, partial curve]
O=C(Nc1ccc2c(c1)OCO2)C1CC(c2cccc(Br)c2)=NO1 (stereo not given)	inactive
COCCN(C(=O)COC(=O)/C=C/c1ccc2ccccc2n1)c1c(N)n(Cc2ccccc2)c(=O)[nH]c1=O	inactive
